Test system: T. cruzi strain Dm28c (DTU TcI)
Experiment: In vivo efficacy assay, acute Chagas disease model
Parameters: species or system Trypanosoma cruzi
Conditions: 20 dpi; for No. of amastigote nests/animal (Mean + SD) / No. of inflammatory foci/animal (Mean + SD): heart histopathology, sulfonamides 150 mg/kg, BNZ 50 mg/kg SID 14 days; for tissue parasite load (in words): heart, colon, spleen, qPCR, 150 mg/kg SID 14 days
Source text: For the in vivo assays, female BALB/c mice, aged between 8 and 9 weeks and weighing approximately 25 g, were used.

`CC(C)Oc1ccc(NS(=O)(=O)c2cccc(NC(=O)c3cnccn3)c2)cc1` [AC-M110, N-(3-(N-(4-isopropoxyphenyl)sulfamoyl)phenyl)pyrazine-2-carboxamide] was tested, and the “No. of amastigote nests/animal (Mean + SD)” value was 0.6 ± 0.5, the “No. of inflammatory foci/animal (Mean + SD)” value was 51.2 ± 20 and the “tissue parasite load (in words)” value was “failed to reduce parasite load”.

In the case of `COc1ccc(NS(=O)(=O)c2cccc(NC(=O)c3cnccn3)c2)cc1` [AC-R008, N-(3-(N-(4-methoxyphenyl)sulfamoyl)phenyl)pyrazine-2-carboxamide], the “No. of amastigote nests/animal (Mean + SD)” value is reported as 0.2 ± 0.4, the “No. of inflammatory foci/animal (Mean + SD)” value is reported as 55.2 ± 11 and the “tissue parasite load (in words)” value is reported as “failed to reduce parasite load”.

With `O=C(Cn1ccnc1[N+](=O)[O-])NCc1ccccc1` [BNZ, Benznidazole, reference compound] the “No. of amastigote nests/animal (Mean + SD)” value was 0, the “No. of inflammatory foci/animal (Mean + SD)” value was 0.6 ± 0.5 and the “cardiac histopathology (in words)” value (myocardium) was “reduced tissue inflammation and eliminated detectable amastigote nests”.

Source: article PMC12698583, “Efficacy of sulfonamides targeting malic enzyme in an animal model of Chagas disease” (Frontiers in Pharmacology, 2025)
